According to the supplement of paper PMC4604168 (melanoma cell lines):
Some of the results follow. Most values come without repeats; read them as rough.
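Also: cell number obtained by counting DAPI-stained nuclei in high-throughput microscope images with image analysis software, screen run in 1,536-well plates.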

Each compound was assayed on COLO829 (assay: cell count relative to DMSO control; melanoma cells; higher = more viable cells). Conditions: library dose: low library concentration; 72 h.
Compound `COc1ccc(C2=N[C@@H](c3ccc(Cl)cc3)[C@@H](c3ccc(Cl)cc3)N2C(=O)N2CCNC(=O)C2)c(OC(C)C)c1` [Nutlin-3] + C/C(O)=C(\C#N)C(=O)Nc1cc(Br)ccc1Br [LFM-A13] (first compound 0.1 µM, partner dose 2 µM) has a cell count of 99.5%. For `CCCCCCCCCCCCCCCCCCOP(=O)([O-])OC1CC[N+](C)(C)CC1` [Perifosine] + O=C(Oc1ccc([N+](=O)[O-])cc1)N1CCC(C(O)(c2ccc3c(c2)OCO3)c2ccc3c(c2)OCO3)CC1 [JZL184] (first compound 0.4 µM, partner dose 1 µM), the cell count was 115%. With `CCN(CC)CCNC(=O)c1c(C)[nH]c(/C=C2\C(=O)Nc3ccc(F)cc32)c1C` [sunitinib] + Cc1cc(SCc2sc(-c3ccc(C(F)(F)F)c(F)c3)nc2C)ccc1OCC(=O)O [GW0742] (first compound 0.4 µM, partner dose 2 µM) the cell count was 125%. `Nc1nc(F)nc2c1ncn2[C@@H]1O[C@H](CO)[C@@H](O)[C@@H]1O` [fludarabine] + C/C(O)=C(\C#N)C(=O)Nc1cc(Br)ccc1Br [LFM-A13] (first compound 0.2 µM, partner dose 2 µM) was tested, and the cell count was 71.8%. `Cc1cc(Nc2cc(N3CCN(C)CC3)nc(/C=C/c3ccccc3)n2)n[nH]1` + C/C(O)=C(\C#N)C(=O)Nc1cc(Br)ccc1Br [LFM-A13] (first compound 0.04 µM, partner dose 2 µM) gave a cell count of 81.5%. For `NC1(c2ccc(-c3nc4ccn5c(=O)[nH]nc5c4cc3-c3ccccc3)cc2)CCC1` + Cc1cc(SCc2sc(-c3ccc(C(F)(F)F)c(F)c3)nc2C)ccc1OCC(=O)O [GW0742] (first compound 0.4 µM, partner dose 2 µM), the cell count was 110%. For `Nc1ncn([C@H]2C[C@H](O)[C@@H](CO)O2)c(=O)n1` [decitabine] + C/C(O)=C(\C#N)C(=O)Nc1cc(Br)ccc1Br [LFM-A13] (first compound 0.1 µM, partner dose 2 µM), the cell count was 62.9%. With `CCCCCCCCc1ccc(CCC(N)(CO)CO)cc1` [fingolimod] + C/C(O)=C(\C#N)C(=O)Nc1cc(Br)ccc1Br [LFM-A13] (first compound 2 µM, partner dose 2 µM) the cell count was 83.3%. `CC[C@]1(O)C[C@H]2CN(CCc3c([nH]c4ccccc34)[C@@](C(=O)OC)(c3cc4c(cc3OC)N(C=O)[C@H]3[C@@](O)(C(=O)OC)[C@H](OC(C)=O)[C@]5(CC)C=CCN6CC[C@]43[C@@H]65)C2)C1` [vincristine] + Cc1cc(SCc2sc(-c3ccc(C(F)(F)F)c(F)c3)nc2C)ccc1OCC(=O)O [GW0742] (first compound 0.0001 µM, partner dose 2 µM) gave a cell count of 97.2%. Compound `Cc1ccc(Nc2nccc(N(C)c3ccc4c(C)n(C)nc4c3)n2)cc1S(N)(=O)=O` [Pazopanib] + C/C(O)=C(\C#N)C(=O)Nc1cc(Br)ccc1Br [LFM-A13] (first compound 0.4 µM, partner dose 2 µM) has a cell count of 104%. `COc1cc([C@@H]2c3cc4c(cc3[C@@H](O[C@@H]3O[C@@H]5CO[C@@H](C)O[C@H]5[C@H](O)[C@H]3O)[C@H]3COC(=O)[C@H]23)OCO4)cc(OC)c1O` [etoposide] + Cc1cc(SCc2sc(-c3ccc(C(F)(F)F)c(F)c3)nc2C)ccc1OCC(=O)O [GW0742] (first compound 0.02 µM, partner dose 2 µM) was tested, and the cell count was 89.7%. `Cc1cc(Nc2cc(N3CCN(C)CC3)nc(/C=C/c3ccccc3)n2)n[nH]1` + Cc1cc(SCc2sc(-c3ccc(C(F)(F)F)c(F)c3)nc2C)ccc1OCC(=O)O [GW0742] (first compound 0.04 µM, partner dose 2 µM) was tested, and the cell count was 64.6%. Work on `Cn1cnc2c(F)c(Nc3ccc(Br)cc3Cl)c(C(=O)NOCCO)cc21` [selumetinib] + C/C(O)=C(\C#N)C(=O)Nc1cc(Br)ccc1Br [LFM-A13] (first compound 0.015 µM, partner dose 2 µM) yielded a cell count of 124%. `NC(=O)c1ccc(N(C(N)=O)c2c(F)cccc2F)nc1-c1ccc(F)cc1F` + C/C(O)=C(\C#N)C(=O)Nc1cc(Br)ccc1Br [LFM-A13] (first compound 0.4 µM, partner dose 2 µM) gave a cell count of 93.8%.
